Results taken from paper PMC12136788.
This is one part of the list.

B1: chr19:48404743:48404844:+|CDS|ENSG00000105464|unk|total|mutant (ssRNA)
RNA: GGGAGUUCUACAGUCCGACGAUCCGAGCAACAGCUUCAGGUCAUCUUUGAGGUGCUGGAGGAGUAUGACUGGACGUCCUUUGCCGCCGUGACCACUCGUGCCCCUGGCCACCGGGCCUUCCUGUCCUACAUUGAGGUGCUGACCAACAGAGGAUUGAGCAUCA
B2: chr16:57472207:57472321:-|3pUTR|ENSG00000125170|unk|FALSE|unique (ssRNA)
RNA: GGGAGUUCUACAGUCCGACGAUCUCAAACUUUUGGUUGUGUGGGGUUUUUUGUUGUUUUUUGGGUUUUGUUUUUUAAUACUUUAGGGUCCUGAUUUGUGGGAACAGACCUUCUUGUAAAUAACCACUAUUUGAGUUGUGGCAGCAACAGAGGAUUGAGCAUCA
B3: chr2:205796339:205796442:+|3pUTR|ENSG00000118257|msi1|FALSE|unique (ssRNA)
RNA: GGGAGUUCUACAGUCCGACGAUCAAGUCCGCAAGUACUGUGGACAAGAAUGCUUAACCAUGCUGCUUCAGCCUUGAGAGACCUAGGUUCUUACACAUAUGCACACACGCAUACACACAUGCACGCACACACACAUACACACAUCAACAGAGGAUUGAGCAUCA
B4: chr10:95311796:95311897:-|3pUTR|ENSG00000095637|unk|total|mutant (ssRNA)
RNA: GGGAGUUCUACAGUCCGACGAUCCAGACACCGAUUUUUCUGUUCAUUUAUUUUUCUUCAUUGCAGUGGAUUGAUUUGAUAAACCGAUGUGUUGAAUUACUACAUUUGCUGUACAUAUUAUUUAAUAAACUUUAUUCAGAAUUGCAACAGAGGAUUGAGCAUCA
B5: ENSG00000070961:be:win_5751|3pUTR|ENSG00000070961|bound_else_gene|NA|bound_elsewhere_windowed (ssRNA)
RNA: GGGAGUUCUACAGUCCGACGAUCCUAAAAAUUGACCCUAUCAACUGGAGAGCCCACAAGGCAUAGGGAAUAGAGAAAAGGGAAAUGUUUUCAGUUUUCUUUUUUAUUUUGGUUAUGCUUAAAUAUGAAUGUAAUUACCAAAAGCAACAGAGGAUUGAGCAUCA
B6: chr9:26904889:26904990:-|3pUTR|ENSG00000137055|msi1|FALSE|bound_elsewhere (ssRNA)
RNA: GGGAGUUCUACAGUCCGACGAUCAUAAUUUCUUGAUUUGUCAUUUAUAAAUCCUAAAGUAUAUUUGUUUAAUGGCCUAUUUUUAGAUGAAGAAAAAGCCAGUUGGUAAGCUGUGUUAGUCAUGUAUCAGUUCAGACAGACGAGCAACAGAGGAUUGAGCAUCA

molecular target: MSI1 full-length (mouse, UniProt Q61474 1-362); test: nsRBNS (natural sequence RNA bind-n-seq); RBNS binding buffer (assumed for nsRBNS): 25 mM Tris pH 7.5, 150 mM KCl, 3 mM MgCl2, 0.01% Triton X-100, 500 ug/ml BSA, 20 U/ml SUPERase-In, 4 C; UNK is unkempt and MSI1 is Musashi-1; names of the RNAs are library labels; protein concentration not given here; high values mean tight binding
Sequence of UniProt Q61474 (Q61474 whole entry): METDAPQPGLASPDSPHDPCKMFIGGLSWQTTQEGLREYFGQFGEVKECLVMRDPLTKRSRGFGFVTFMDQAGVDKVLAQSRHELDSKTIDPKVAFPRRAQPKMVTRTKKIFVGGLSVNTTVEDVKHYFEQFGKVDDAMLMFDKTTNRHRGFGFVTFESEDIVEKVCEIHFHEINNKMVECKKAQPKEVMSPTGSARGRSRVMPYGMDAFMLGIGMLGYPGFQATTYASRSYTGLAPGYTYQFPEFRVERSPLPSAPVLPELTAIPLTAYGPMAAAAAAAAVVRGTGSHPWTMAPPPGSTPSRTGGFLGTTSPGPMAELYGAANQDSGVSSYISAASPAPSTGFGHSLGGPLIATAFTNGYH

Binder	binding signal [enrichment R]
B1	0.272
B2	0.886
B3	0.627
B4	1.5
B5	0.329
B6	6.82
